# Source: the supplement of paper PMC10037445
# The full ranking holds about 2,900 compounds; the median of “IRF Lucia reporter activity, fold change vs agonist alone” is about 0.9, and the highest 2% start at about 2.8. The list shows a part of the results.
# Tests used:
# RAW-Dual [1] = assay: IRF Lucia reporter activity, fold change vs agonist alone; higher = enhanced IRF activity; conditions: agonist: MPLA (TLR4) […]
# Outline: (§1)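 Reporter activity is given as fold change relative to agonist-alone wells. To measure it, 50 nL of library stock was pin-tooled onto RAW-Dual macrophages (50,000 cells/well, DMEM, 384-well plates), a PRR agonist followed 1 h later, and cells stayed at 37 °C, 5% CO2. Twenty hours on, supernatant was assayed for IRF (QuantiLuc luminescence) and NF-κB (QuantiBlue, 620 nm absorbance), and wells under 70% of agonist-control IncuCyte confluency in both mask sets were marked cytotoxic.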
# RAW-Dual [2] = assay: IRF Lucia reporter activity, fold change vs agonist alone; cytotoxicity flag (confluency mask): not cytotoxic; higher = enhanced IRF activity
# Outline: as §1
# RAW-Dual [3] = assay: IRF Lucia reporter activity, fold change vs agonist alone; cytotoxicity flag (confluency mask): cytotoxic (confluency <70% of control); higher = enhanced IRF activity
# Outline: as §1
# [4] = library stock concentration (final ~1000-fold dilution): 10 mM, cytotoxicity flag (confluency mask): not cytotoxic
# [5] = agonist: 3'3'-cGAMP (STING) 10 ug/mL
compound,measurement,setting,value
O=C(C=Cn1cnc(-c2cc(C(F)(F)F)cc(C(F)(F)F)c2)n1)NNc1cnccn1,IRF Lucia reporter activity,RAW-Dual [1]; [4],0.139
O=C(C=Cn1cnc(-c2cc(C(F)(F)F)cc(C(F)(F)F)c2)n1)NNc1cnccn1 (library stock concentration (final ~1000-fold dilution): 10 mM),IRF Lucia reporter activity,RAW-Dual [2]; [5],0.0414
same,IRF Lucia reporter activity,RAW-Dual [2]; agonist: LPS (TLR4) 0.1 ug/mL,0.162
COc1ccc(NC(=O)c2ccc(C(=N)N(C)C)cc2)c(C(=O)Nc2ccc(Cl)cn2)c1.O=C(O)/C=C\C(=O)O,IRF Lucia reporter activity,RAW-Dual [1]; [4],1.02
COc1ccc(NC(=O)c2ccc(C(=N)N(C)C)cc2)c(C(=O)Nc2ccc(Cl)cn2)c1.O=C(O)/C=C\C(=O)O (library stock concentration (final ~1000-fold dilution): 10 mM),IRF Lucia reporter activity,RAW-Dual [2]; [5],0.858
same,IRF Lucia reporter activity,RAW-Dual [2]; agonist: LPS (TLR4) 0.1 ug/mL,0.917
CCn1c(=O)c(-c2cc(NC(=O)Nc3ccccc3)c(F)cc2Br)cc2cnc(NC)cc21 (library stock concentration (final ~1000-fold dilution): 10 mM),IRF Lucia reporter activity,RAW-Dual [2]; [5],0.671
same,IRF Lucia reporter activity,RAW-Dual [2]; agonist: LPS (TLR4) 0.1 ug/mL,0.268
CN(C)CCCCC(=O)Nc1ccc(NC(=S)NC(=O)c2ccc(C(C)(C)C)cc2)cc1.Cl (library stock concentration (final ~1000-fold dilution): 10 mM),IRF Lucia reporter activity,RAW-Dual [3]; [5],0.136
same,IRF Lucia reporter activity,RAW-Dual [3]; agonist: LPS (TLR4) 0.1 ug/mL,1.07
CN(C)CCCCC(=O)Nc1ccc(NC(=S)NC(=O)c2ccc(C(C)(C)C)cc2)cc1.Cl,IRF Lucia reporter activity,"RAW-Dual [1]; library stock concentration (final ~1000-fold dilution): 10 mM, cytotoxicity flag (confluency mask): cytotoxic (confluency <70% of control)",0.389
C=CC1(C)CC(OC(=O)CSC(C)(C)CNC(=O)C(N)C(C)C)C2(C)C(C)CCC3(CCC(=O)C32)C(C)C1O.Cl (configuration not stated) (library stock concentration (final ~1000-fold dilution): 10 mM),IRF Lucia reporter activity,RAW-Dual [2]; [5],0.568
same,IRF Lucia reporter activity,RAW-Dual [2]; agonist: LPS (TLR4) 0.1 ug/mL,1.47
C=CC1(C)CC(OC(=O)CSC(C)(C)CNC(=O)C(N)C(C)C)C2(C)C(C)CCC3(CCC(=O)C32)C(C)C1O.Cl (configuration not stated),IRF Lucia reporter activity,RAW-Dual [1]; [4],1.3
COc1ccc(CN(CCN(C)C)c2ccccn2)cc1.O=C(O)/C=C\C(=O)O,IRF Lucia reporter activity,RAW-Dual [1]; [4],0.966
COc1ccc(CN(CCN(C)C)c2ccccn2)cc1.O=C(O)/C=C\C(=O)O (library stock concentration (final ~1000-fold dilution): 10 mM),IRF Lucia reporter activity,RAW-Dual [2]; [5],1.5
same,IRF Lucia reporter activity,RAW-Dual [2]; agonist: LPS (TLR4) 0.1 ug/mL,0.716
Cc1nc(Nc2ncc(C(=O)Nc3c(C)cccc3Cl)s2)cc(N2CCN(CCO)CC2)n1.Cl,IRF Lucia reporter activity,RAW-Dual [1]; [4],0.77
Cc1nc(Nc2ncc(C(=O)Nc3c(C)cccc3Cl)s2)cc(N2CCN(CCO)CC2)n1.Cl (library stock concentration (final ~1000-fold dilution): 10 mM),IRF Lucia reporter activity,RAW-Dual [2]; [5],0.0778
same,IRF Lucia reporter activity,RAW-Dual [2]; agonist: LPS (TLR4) 0.1 ug/mL,1.07
COCCc1ccc(OCC(O)CNC(C)C)cc1.COCCc1ccc(OCC(O)CNC(C)C)cc1.O=C(O)CCC(=O)O (configuration not stated) (library stock concentration (final ~1000-fold dilution): 10 mM),IRF Lucia reporter activity,RAW-Dual [2]; [5],0.95
same,IRF Lucia reporter activity,RAW-Dual [2]; agonist: LPS (TLR4) 0.1 ug/mL,0.608
COCCc1ccc(OCC(O)CNC(C)C)cc1.COCCc1ccc(OCC(O)CNC(C)C)cc1.O=C(O)CCC(=O)O (configuration not stated),IRF Lucia reporter activity,RAW-Dual [1]; [4],1.03
CC1=C(C(=O)OC(C)C)C(c2cccc([N+](=O)[O-])c2)C(C(=O)OC2CN(C(c3ccccc3)c3ccccc3)C2)=C(N)N1 (configuration not stated) (library stock concentration (final ~1000-fold dilution): 10 mM),IRF Lucia reporter activity,RAW-Dual [2]; [5],0.954
same,IRF Lucia reporter activity,RAW-Dual [2]; agonist: LPS (TLR4) 0.1 ug/mL,0.756
CC1=C(C(=O)OC(C)C)C(c2cccc([N+](=O)[O-])c2)C(C(=O)OC2CN(C(c3ccccc3)c3ccccc3)C2)=C(N)N1 (configuration not stated),IRF Lucia reporter activity,RAW-Dual [1]; [4],1.16
COc1cc(C(=O)NS(=O)(=O)c2ccccc2C)ccc1Cc1cn(C)c2ccc(NC(=O)OC3CCCC3)cc12 (library stock concentration (final ~1000-fold dilution): 10 mM),IRF Lucia reporter activity,RAW-Dual [2]; [5],0.983
same,IRF Lucia reporter activity,RAW-Dual [2]; agonist: LPS (TLR4) 0.1 ug/mL,0.881
COc1cc(C(=O)NS(=O)(=O)c2ccccc2C)ccc1Cc1cn(C)c2ccc(NC(=O)OC3CCCC3)cc12,IRF Lucia reporter activity,RAW-Dual [1]; [4],1.04
COc1ccc(-c2cnc3c(-c4cccc5ncccc45)cnn3c2)cc1 (library stock concentration (final ~1000-fold dilution): 10 mM),IRF Lucia reporter activity,RAW-Dual [2]; [5],0.587
same,IRF Lucia reporter activity,RAW-Dual [2]; agonist: LPS (TLR4) 0.1 ug/mL,0.513
COc1ccc(-c2cnc3c(-c4cccc5ncccc45)cnn3c2)cc1,IRF Lucia reporter activity,RAW-Dual [1]; [4],0.622
CC(/C=C/C=C(\C)C(=O)OC1OC(COC2OC(CO)C(O)C(O)C2O)C(O)C(O)C1O)=C\C=C\C=C(C)\C=C\C=C(/C)C(=O)OC1OC(COC2OC(CO)C(O)C(O)C2O)C(O)C(O)C1O (configuration not stated) (library stock concentration (final ~1000-fold dilution): 10 mM),IRF Lucia reporter activity,RAW-Dual [2]; [5],0.95
same,IRF Lucia reporter activity,RAW-Dual [2]; agonist: LPS (TLR4) 0.1 ug/mL,1.01
Cc1ccc(C2OC(CO)C(O)C(O)C2O)cc1Cc1ccc(-c2ccc(F)cc2)s1 (configuration not stated),IRF Lucia reporter activity,RAW-Dual [1]; [4],0.952
Cc1ccc(C2OC(CO)C(O)C(O)C2O)cc1Cc1ccc(-c2ccc(F)cc2)s1 (configuration not stated) (library stock concentration (final ~1000-fold dilution): 10 mM),IRF Lucia reporter activity,RAW-Dual [2]; [5],1.14
same,IRF Lucia reporter activity,RAW-Dual [2]; agonist: LPS (TLR4) 0.1 ug/mL,0.886
COc1ccc(C2OCC3C(c4ccc5c(c4)OCO5)OCC23)cc1OC (configuration not stated) (library stock concentration (final ~1000-fold dilution): 10 mM),IRF Lucia reporter activity,RAW-Dual [2]; [5],0.966
same,IRF Lucia reporter activity,RAW-Dual [2]; agonist: LPS (TLR4) 0.1 ug/mL,1.02
O=C(COc1ccc(Cl)cc1)NC1CCC(NC(=O)COc2ccc(Cl)cc2)CC1 (configuration not stated),IRF Lucia reporter activity,"RAW-Dual [1]; library stock concentration (final ~1000-fold dilution): 2 mM, cytotoxicity flag (confluency mask): not cytotoxic",1.22
O=C(COc1ccc(Cl)cc1)NC1CCC(NC(=O)COc2ccc(Cl)cc2)CC1 (configuration not stated) (library stock concentration (final ~1000-fold dilution): 2 mM),IRF Lucia reporter activity,RAW-Dual [2]; [5],1.18
same,IRF Lucia reporter activity,RAW-Dual [2]; agonist: LPS (TLR4) 0.1 ug/mL,1.02
